Among all 410,000 compounds or so, about 5,000 (1.2%) were called active. The shares of active, inactive and inconclusive entries below differ from those in the screen. The call rests on the fitted dose curve; in most records, active means well fitted inhibition curve with a large enough effect; inconclusive means small, poorly fitted or top-dose-only effect; inactive means no such curve, though single readings can be large or run the other way. A potency beside an inconclusive call is a rough fit, not a confirmed value.
experiment: qHTS for Inhibitors of TGF-b; settings: HepG2 CAGA-GFP TGF-b/SMAD3 reporter, GFP fluorescence, 18 h, TGF-beta stimulated, 500 pg/mL final; series mostly up to 46.1 µM; further: nearly all actives have a fitted effect of over 65% in size
Method in brief: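 TGF-beta reporter screen: HEPG2 CAGA-GFP, 1% FBS, 500 pg/mL TGF-beta final, 18 h; per-cell GFP summed per well; curves fitted and categorized by class.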
Potency means the concentration at half of the fitted maximal effect; tags describe the fitted curve by direction and shape.

Compound	Potency
O=C(Nc1ccc(F)c(F)c1)c1cc(S(=O)(=O)NC2CCCC2)ccc1F	inconclusive: 31.6 µM [inhibitor, single point]
CCCCOc1cccc(C2c3c(-c4cc(C)ccc4O)n[nH]c3C(=O)N2CCOC)c1 (centres undefined)	inconclusive: 11.2 µM [inhibitor, partial curve, poor fit]
CCCCCOc1ccc(/C=C/C(=O)Nc2sc3c(c2C(=O)OCC)CCC3)cc1OC	inconclusive: 35.5 µM [inhibitor, single point]
Cc1nn(Cc2ccccc2)c(C)c1/C=N/NC(=O)CNc1cccc(C(F)(F)F)c1	inconclusive: 25.1 µM [inhibitor, single point]
COc1ccc(C2c3ccc4ccccc4c3Oc3ncn(CCO)c(=N)c32)cc1OC (centres undefined)	inactive
CCc1ccc(NC(=O)c2cc(=O)c3ccc(C)c(C)c3o2)cc1	inactive
O=C(Nc1ccccc1C(=O)N1CCCCC1)c1nsc2ccccc12	inconclusive: 2.82 µM [inhibitor, single point]
CCCCCc1ccc(-c2cn(Cc3cccc(OC)c3)nn2)cc1	inconclusive: 20 µM [inhibitor, single point]
CNC(=S)N/N=C(\C)c1ccccc1	inconclusive: 12.6 µM [inhibitor, partial curve]
CCOC(=O)c1sc(NC(=O)CC(C)c2ccccc2)nc1C (centres undefined)	inactive
Cc1ccc(CNC(=O)C2CC(c3cccc([N+](=O)[O-])c3)=NO2)cc1 (centres undefined)	inconclusive: 4.47 µM [inhibitor, full curve, poor fit]
COc1cccc(NC(=O)C2CCCN(c3ncnc4onc(C)c34)C2)c1 (centres undefined)	inconclusive: 12.6 µM [inhibitor, partial curve]
CCOc1ccc2nc(NC3=NC(C)(C)C=C(C)N3)nc(C)c2c1	inconclusive: 35.5 µM [inhibitor, single point]
NCC12CC3CC(C1)CC(c1ccc(Br)cc1)(C3)C2	inconclusive: 35.5 µM [inhibitor, single point]
Cc1ccc(-c2csc(Cc3nc(-c4cc5ccccc5oc4=O)cs3)n2)cc1	inconclusive: 0.631 µM [inhibitor, full curve]
COc1cccc(NC(=O)CSc2nnnn2C2CCCC2)c1	inconclusive: 35.5 µM [inhibitor, partial curve, poor fit]
COC(=O)CN1C(=O)CSc2ccc(S(=O)(=O)Nc3ccc(C)c(Cl)c3)cc21	inconclusive: 22.4 µM [inhibitor, single point]
O=C(Cc1ccc(-c2ccccc2)cc1)NCCS(=O)(=O)N1CCN(c2ccccc2F)CC1	inactive
CCOCC(=O)Nc1nc2ccc(C)cc2s1	inconclusive: 35.5 µM [inhibitor, partial curve, poor fit]
CSc1ncc(Cl)c(C(=O)Nc2nnc(SC/C=C/c3ccccc3)s2)n1	inconclusive: 35.5 µM [inhibitor, partial curve, poor fit]
O=c1c2ccccc2nc(/C=C/c2ccc(Br)cc2)n1CCCO	inactive
CCCCN(CCCC)C(=O)c1c[nH]c2ccc(S(=O)(=O)Nc3cccc(Cl)c3C)cc2c1=O	inconclusive: 25.1 µM [inhibitor, single point]

Compound	Potency
CCCn1c2ccccc2c2cnn(CC(=O)N3CCCC(C(=O)OCC)C3)c(=O)c21 (centres undefined)	inconclusive: 11.2 µM [inhibitor, partial curve, poor fit]
O=C(CNC(=S)NC(=O)C1CCCCC1)c1ccccc1	inconclusive: 0.562 µM [inhibitor, full curve, poor fit]
CCc1cccc(NC(=O)C2CCN(c3ncnc4sc(C)c(C)c34)CC2)c1	inconclusive: 25.1 µM [inhibitor, single point]
CCN1CCN(C(=O)Cn2ncc3c4ccccc4n(Cc4c(C)cc(C)cc4C)c3c2=O)CC1	active: 15.8 µM
Cc1ccc(-c2cc(C(=O)OCn3nnc4ccccc4c3=O)c3ccccc3n2)cc1	inconclusive: 5.62 µM [inhibitor, single point]
CCCSCCCNC(=O)Cn1c(-c2cccs2)cc2ccccc21	inconclusive: 12.6 µM [inhibitor, single point]
CCc1nnc2sc(-c3cc(-c4ccccc4)nc4ccccc34)nn12	inactive
CCN(CC)CCN(C(=O)CCOc1ccccc1)c1nc2ccc(F)cc2s1	inactive
O=C(c1ccc(S(=O)(=O)c2ccc(F)cc2)c([N+](=O)[O-])c1)N1CCCCCC1	inconclusive: 8.91 µM [inhibitor, partial curve, poor fit]
O=C(Nc1c2c(nn1-c1ccc(Cl)cc1)CS(=O)(=O)C2)c1ccc(Br)cc1	inconclusive: 17.8 µM [inhibitor, single point]
NCC12CC3CC(C1)CC(c1ccc(Cl)cc1)(C3)C2	inconclusive: 22.4 µM [inhibitor, single point]
COc1ccc(CN(C)C(=O)c2cccc(C(=O)N(C)Cc3ccc(OC)cc3)c2)cc1	inconclusive: 3.55 µM [inhibitor, partial curve, poor fit]
COc1ccccc1CNC(=O)/C=C/c1ccc(S(=O)(=O)NCc2ccco2)cc1	inactive
CCc1cccc(NC(=O)C2CCN(S(=O)(=O)c3ccc4c(c3)NC(=O)CO4)CC2)c1	inconclusive: 35.5 µM [inhibitor, single point]
CCCN1C(C(=O)c2ccccc2)=C(OC(=O)COc2ccc(C)cc2)c2ccccc2S1(=O)=O	inconclusive: 12.6 µM [inhibitor, partial curve, poor fit]
COc1ccc(S(=O)(=O)N(CC(=O)Nc2ccc(Br)cc2)Cc2ccccc2)cc1	inconclusive: 11.2 µM [inhibitor, partial curve, poor fit]
Cc1ccc(NC(=O)C2CCCN(S(=O)(=O)c3cccs3)C2)c(C)c1 (centres undefined)	inactive
CCCCNS(=O)(=O)c1ccc2nc(SCC(=O)c3ccc(C#N)cc3)[nH]c2c1	inconclusive: 17.8 µM [inhibitor, single point]
CN(C)c1ccc(CNCCC(Cc2ccccc2)c2ccco2)cc1 (centres undefined)	inconclusive: 35.5 µM [inhibitor, single point]
Cc1cc(NS(=O)(=O)c2ccc(NC(=O)COc3cc(C)c(Br)cc3C(C)C)cc2)no1	inconclusive: 15.8 µM [inhibitor, partial curve, poor fit]
CSC(=NC(C)c1ccccc1)NS(=O)(=O)c1cccs1 (centres undefined)	inconclusive: 11.2 µM [inhibitor, single point]
CCOc1ccc(N(CC)C(=O)Cn2cnc3sc(C)c(S(=O)(=O)N4CCN(c5ncccn5)CC4)c3c2=O)cc1	inactive

Compound	Potency
COc1ccc(NC2=C(Cl)C(=O)N(CCc3ccccc3)C2=O)c(OC)c1	inactive
CCn1c(SCC(=O)N2CCC(C)CC2)nnc1-c1ccco1	inactive
O=C(c1ccc2ccccc2c1)N1CCN(Cc2ccccc2)CC1	inconclusive: 35.5 µM [inhibitor, single point]
Cc1ccc(-n2ncc(C(=O)NCCN3CCC(Cc4ccccc4)CC3)c2C2CCN(C(=O)OC(C)(C)C)CC2)cc1	inconclusive: 8.91 µM [inhibitor, partial curve]
O=C(NCC(c1cccnc1)N1CCc2ccccc21)c1ccc(Cl)cc1 (centres undefined)	inconclusive: 10 µM [inhibitor, partial curve, poor fit]
CCCCCCCNC(=O)C1(CC2CC(c3ccccc3)=NO2)CCN(C(=O)c2ccccc2)CC1 (centres undefined)	inconclusive: 35.5 µM [inhibitor, single point]
Fc1ccc(-c2nc(-c3cccs3)[nH]c2-c2ccc(F)cc2)cc1	active: 14.1 µM
Cc1ccc(NC(=O)OCCNC(=O)OC(C)C)cc1	inconclusive: 6.31 µM [inhibitor, single point]
C[C@@H]1CN([C@H](C)CO)C(=O)CCCn2nncc2CO[C@H]1CN(C)Cc1ccccc1	inconclusive: 3.16 µM [inhibitor, single point]
O=C(Nc1ncc(S(=O)(=O)c2ccc([N+](=O)[O-])cc2)s1)c1cccnc1	inconclusive: 22.4 µM [inhibitor, single point]
CCN(c1ccccc1)S(=O)(=O)c1ccc(OC)c(NC(=O)Cn2cnc3c2c(=O)n(C)c(=O)n3C)c1	active: 2.82 µM
COCC(C)n1c(C)cc(C(=O)COC(=O)c2cc(=O)[nH]c3ccccc23)c1C (centres undefined)	inactive
O=[N+]([O-])c1ccc(O)c(-c2cc(C(F)(F)F)nc(-c3ccccc3)n2)c1	inconclusive: 0.316 µM [inhibitor, full curve]
CCc1ccccc1NC(=O)CCNC(=O)Cn1ccc2ccccc2c1=O	inactive
Cn1cnnc1Sc1nc2c(c(=O)n(C)c(=O)n2C)n1C	inconclusive: 0.562 µM [inhibitor, partial curve, poor fit]
O=C(Nc1ccc(OC(F)(F)F)cc1)N1CCN(c2ccnc3cc(Cl)ccc23)CC1	inconclusive: 35.5 µM [inhibitor, single point]
Cc1ccc2c(c1)N(C(=O)CCC(=O)NCc1ccccc1F)CC(C)O2 (centres undefined)	inconclusive: 22.4 µM [inhibitor, single point]
N/C(CN1CCCC1=O)=N\OC(=O)c1ccccc1Cl	inconclusive: 14.1 µM [inhibitor, single point]
COc1cccc(NC(=O)/C=C/c2ccc([N+](=O)[O-])cc2)c1	inactive
CN(CC(=O)Nc1ccccc1Cl)C(=O)c1cccc(S(=O)(=O)N2CCN(Cc3ccccc3)CC2)c1	inconclusive: 10 µM [inhibitor, partial curve]
